# Experimental data taken from the supplement of paper PMC8728848.
# Some of the results follow.
# B1: MGL (Homo sapiens), Q8IUN9 (protein)
# chain: MTRTYENFQYLENKVKVQGFKNGPLPLQSLLQRLCSGPCHLLLSLGLGLLLLVIICVVGFQNSKFQRDLVTLRTDFSNFTSNTVAEIQALTSQGSSLEETIASLKAEVEGFKQERQAGVSELQEHTTQKAHLGHCPHCPSVCVPVHSEMLLRVQQLVQDLKKLTCQVATLNNNASTEGTCCPVNWVEHQDSCYWFSHSGMSWAEAEKYCQLKNAHLVVINSREEQNFVQKYLGSAYTWMGLSDPEGAWKWVDGTDYATGFQNWKPGQPDDWQGHGLGGGEDCAHFHPDGRWNDDVCQRPYHWVCEAGLGQTSQESH
# Legend:
# Assay in all cases: glycan array binding signal (z-score within array); higher = stronger binding
# Details in all cases: glycan notation: IUPAC condensed, linker removed
# [1] = molecular target: Gal(b1-4)GlcNAc(b1-2)Man(a1-3)[Gal(b1-4)GlcNAc(b1-2)Man(a1-6)]Man(b1-4)GlcNAc(b1-4)GlcNAc
# How it was run: (§1)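 The Consortium for Functional Glycomics database supplied 3228 glycan arrays, of which those lacking an available protein sequence were dropped. The binding signal, a within-array Z-score, was averaged across arrays of the same protein sequence and across linkers. Negative scores can be read as non-binding.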
# [2] = molecular target: Gal(b1-4)GlcNAc(b1-2)Man(a1-3)[Gal(b1-4)GlcNAc(b1-2)Man(a1-6)]Man(b1-4)GlcNAc(b1-4)[Fuc(a1-6)]GlcNAc
# How it was run: as §1
# [3] = molecular target: Gal(b1-4)GlcNAc(b1-2)Man(a1-3)[Gal(b1-4)GlcNAc(b1-2)Man(a1-6)][Gal(b1-4)GlcNAc(b1-4)]Man(b1-4)GlcNAc(b1-4)[Fuc(a1-6)]GlcNAc
# How it was run: as §1
# [4] = molecular target: Gal(b1-4)GlcNAc(b1-2)Man(a1-3)[Gal(b1-4)GlcNAc(b1-2)Man(a1-6)][GlcNAc(b1-4)]Man(b1-4)GlcNAc(b1-4)[Fuc(a1-6)]GlcNAc
# How it was run: as §1
# [5] = molecular target: Gal(b1-4)GlcNAc(b1-2)Man(a1-3)[GlcNAc(b1-2)Man(a1-6)]Man(b1-4)GlcNAc(b1-4)GlcNAc
# How it was run: as §1
# [6] = molecular target: Gal(b1-4)GlcNAc(b1-2)Man(a1-3)[GlcNAc(b1-4)][Gal(b1-4)GlcNAc(b1-2)Man(a1-6)]Man(b1-4)GlcNAc(b1-4)GlcNAc
# How it was run: as §1
# [7] = molecular target: Gal(b1-4)GlcNAc(b1-2)Man(a1-3)[Man(a1-6)]Man(b1-4)GlcNAc(b1-4)GlcNAc
# How it was run: as §1
# [8] = molecular target: Gal(b1-4)GlcNAc(b1-2)Man(a1-6)Man(b1-4)GlcNAc(b1-4)GlcNAc
# How it was run: as §1
# [9] = molecular target: Gal(b1-4)GlcNAc(b1-2)Man(a1-6)[GlcNAc(b1-2)Man(a1-3)]Man(b1-4)GlcNAc(b1-4)GlcNAc
# How it was run: as §1
# [10] = molecular target: Gal(b1-4)GlcNAc(b1-2)Man(a1-6)[Man(a1-3)]Man(b1-4)GlcNAc(b1-4)GlcNAc
# How it was run: as §1
# [11] = molecular target: Gal(b1-4)GlcNAc(b1-2)[Gal(b1-4)GlcNAc(b1-4)]Man(a1-3)[Gal(b1-4)GlcNAc(b1-2)Man(a1-6)]Man(b1-4)GlcNAc(b1-4)GlcNAc
# How it was run: as §1
# [12] = molecular target: Gal(b1-4)GlcNAc(b1-2)[Gal(b1-4)GlcNAc(b1-4)]Man(a1-3)[Gal(b1-4)GlcNAc(b1-2)[Gal(b1-4)GlcNAc(b1-6)]Man(a1-6)]Man(b1-4)GlcNAc(b1-4)GlcNAc
# How it was run: as §1
# [13] = molecular target: Gal(b1-4)GlcNAc(b1-2)[Gal(b1-4)GlcNAc(b1-4)]Man(a1-3)[GlcNAc(b1-4)][Gal(b1-4)GlcNAc(b1-2)Man(a1-6)]Man(b1-4)GlcNAc(b1-4)GlcNAc
# How it was run: as §1
# [14] = molecular target: Gal(b1-4)GlcNAc(b1-2)[Gal(b1-4)GlcNAc(b1-4)]Man(a1-3)[GlcNAc(b1-4)][Gal(b1-4)GlcNAc(b1-2)[Gal(b1-4)GlcNAc(b1-6)]Man(a1-6)]Man(b1-4)GlcNAc(b1-4)GlcNAc
# How it was run: as §1
# [15] = molecular target: Gal(b1-4)GlcNAc(b1-2)[Gal(b1-4)GlcNAc(b1-6)]Man(a1-6)[Gal(b1-4)GlcNAc(b1-2)Man(a1-3)]Man(b1-4)GlcNAc(b1-4)GlcNAc
# How it was run: as §1
# [16] = molecular target: Gal(b1-4)GlcNAc(b1-2)[Gal(b1-4)GlcNAc(b1-6)]Man(a1-6)[Gal(b1-4)GlcNAc(b1-2)Man(a1-3)]Man(b1-4)GlcNAc(b1-4)[Fuc(a1-6)]GlcNAc
# How it was run: as §1
# [17] = molecular target: Gal(b1-4)GlcNAc(b1-2)[Gal(b1-4)GlcNAc(b1-6)]Man(a1-6)[GlcNAc(b1-4)][Gal(b1-4)GlcNAc(b1-2)Man(a1-3)]Man(b1-4)GlcNAc(b1-4)GlcNAc
# How it was run: as §1
# [18] = molecular target: Gal(b1-4)GlcNAc(b1-2)[Gal(b1-4)GlcNAc(b1-6)]Man(a1-6)[GlcNAc(b1-4)][Gal(b1-4)GlcNAc(b1-2)[Gal(b1-4)GlcNAc(b1-4)]Man(a1-3)]Man(b1-4)GlcNAc(b1-4)[Fuc(a1-6)]GlcNAc
# How it was run: as §1
# [19] = molecular target: Gal(b1-4)GlcNAc(b1-3)Gal(b1-3)GalNAc
# How it was run: as §1
binder,measurement,setting,value
B1,glycan array binding signal (z-score),[1],-0.254
same,glycan array binding signal (z-score),[2],-0.246
same,glycan array binding signal (z-score),[3],-0.26
same,glycan array binding signal (z-score),[4],-0.258
same,glycan array binding signal (z-score),[5],-0.252
same,glycan array binding signal (z-score),[6],-0.25
same,glycan array binding signal (z-score),[7],-0.232
same,glycan array binding signal (z-score),[8],-0.247
same,glycan array binding signal (z-score),[9],-0.229
same,glycan array binding signal (z-score),[10],-0.24
same,glycan array binding signal (z-score),[11],-0.244
same,glycan array binding signal (z-score),[12],-0.245
same,glycan array binding signal (z-score),[13],-0.245
same,glycan array binding signal (z-score),[14],-0.265
same,glycan array binding signal (z-score),[15],-0.244
same,glycan array binding signal (z-score),[16],-0.238
same,glycan array binding signal (z-score),[17],-0.244
same,glycan array binding signal (z-score),[18],-0.244
same,glycan array binding signal (z-score),[19],-0.27
